Experimental data reported in PubChem BioAssay AID1347430 (National Center for Advancing Translational Sciences (NCATS), 2020).
About 130 (0.14%) of roughly 91,000 compounds were called active. The inconclusive results got no clear call from the source; some entries with a clear call stand among them for comparison. Calls follow the shape of the dose curve; as a rule, active = well fitted inhibition curve with a large enough effect; inconclusive = small, poorly fitted or top-dose-only effect; inactive = flat fitted curve, though single readings scatter. A potency beside an inconclusive call is a rough fit, not a confirmed value.

These compounds were tested on Uracil-DNA glycosylase (assay: Primary qHTS assay for inhibitors of Activation Induced Cytidine Deaminase (AID): UDG Counterscreen signal). Conditions: FRET deamination/UDG coupled assay, UDG read, 4 h; activity change, negative = inhibition: at 115 µM (top of the series).
% is scaled to controls: 0 for no effect and ±100 for the full control effect; potency is read from the fitted curve at half-maximal effect; tags tell the direction and shape of the fitted curve.
Also: nearly all actives have a fitted effect of over 65% in size.

| Compound | Potency | activity change, negative = inhibition |
| --- | --- | --- |
| COc1ccc(/C=C/c2nc(C#N)c(N3CCCCC3)o2)cc1OC | inconclusive: 89.1 µM [inhibitor, partial curve] |  |
| Cc1nn(C(C)C(=O)N2CCN(c3ccc(F)cc3)CC2)c(=O)c2c1sc1ccccc12 (stereo not given) | inconclusive: 89.1 µM [inhibitor, partial curve, poor fit] |  |
| O=C(NCC(c1cccs1)S(=O)(=O)c1cccs1)c1ccc(F)c(F)c1 (stereo not given) |  | inactive: 0.157% |
| CCOc1ccc2c(=O)c(Oc3cccc(OC)c3)c(C)oc2c1 |  | inactive: -6.4% |
| Cc1ccc(-c2coc3cc4oc(=O)cc(-c5ccccc5)c4cc23)cc1 |  | inactive: 3.99% |
| COc1ccc(OC)c(CCNC(=O)c2c(C)oc3ncn(CC(C)C)c(=O)c23)c1 | inconclusive: 89.1 µM [inhibitor, single point] |  |
| Cc1cc(C)cc(OCCn2cnc3c2c(=O)n(C)c(=O)n3C)c1 |  | inactive: -18.9% |
| O=C(CSc1nc2ccsc2c(=O)n1-c1ccccc1)NC1CCCC1 |  | inactive: 0.829% |
| Cc1cnc2c(S(=O)(=O)N3CCN(CC(F)(F)F)CC3)cccc2c1 |  | inactive: -0.886% |
| CCCN(CCC)CC(O)CN(c1ccc(OC)cc1)S(=O)(=O)c1ccc(C)cc1 (stereo not given) | inconclusive: 79.4 µM [inhibitor, partial curve] |  |
| CCN(CC)S(=O)(=O)c1ccc(-c2csc(=Nc3cccc(C(F)(F)F)c3)n2Cc2ccc3c(c2)OCO3)cc1 | inconclusive: 79.4 µM [inhibitor, partial curve, poor fit] |  |
| Cc1ccn2cc(CNC(=O)Cc3cn(C)c4ccccc34)nc2c1 |  | inactive: -3.47% |
| COc1ccc(CCNC(=O)c2cc3c(-c4ccc(OC)c(OC)c4)nn(C)c3s2)cc1OC | inconclusive: 89.1 µM [inhibitor, partial curve, poor fit] |  |
| Cc1ccc(Cl)cc1N1CCN(C(=O)c2ccc(CS(=O)(=O)c3ccc(Br)cc3)o2)CC1 | inconclusive: 89.1 µM [inhibitor, partial curve, poor fit] |  |
| Cn1nc(C(=O)OCC(=O)NC(C)(C)C)c2ccccc2c1=O |  | inactive: -2.61% |
| Cn1c(Cl)c(C=O)c2ccccc21 |  | inactive: 0.738% |
| CC1(C)CS(=O)(=O)N(c2ccc(C(=O)Nc3ccc4c(c3)OCO4)cc2)C1=O |  | inactive: 2.82% |
| COc1ccc(CN2CCN(c3ncnc4sc5c(c34)CC(C)CC5)CC2)cc1F (stereo not given) | inconclusive: 2.82 µM [inhibitor, full curve, poor fit] |  |
| CCc1ccc(-n2c(Cc3ccccc3)nnc2SCc2nc(-c3cccs3)no2)cc1 | inconclusive: 28.2 µM [inhibitor, full curve] |  |
| CCCCCn1c(-c2ccc(OC)c(OC)c2)nc2ccccc21 | inconclusive: 39.8 µM [inhibitor, single point] |  |
